Laboratory results taken from PubChem BioAssay AID1347417 (National Center for Advancing Translational Sciences (NCATS), 2020).
Hit rate of the full screen: of about 120,000 compounds, about 5,300 (4.4%) were called active. The shares of active, inactive and inconclusive entries below differ from those in the screen. The call rests on the fitted dose curve; in most records, active means well fitted inhibition curve with a large enough effect; inconclusive means small, poorly fitted or top-dose-only effect; inactive means no such curve, though single readings can be large or run the other way. Where the call is inconclusive, the potency comes from a doubtful curve fit.

Assay: qHTS Primary assay for Inhibitors of Plasmodium falciparum Dd2 growth in vitro; further: nearly all actives have a fitted effect of over 65% in size
Conditions: P. falciparum Dd2 growth, SYBR Green, 72 h; series mostly up to 28.9 µM
Procedure, shortened: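 Infected erythrocytes (Dd2, 0.3% parasitemia, 2.5% hematocrit final) are added to compound in RPMI-1640/Albumax II medium, grown 72 h at 37C in low oxygen, then lysed with saponin/Triton-X containing SYBR Green and read by fluorescence.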
Potency means the concentration at half of the fitted maximal effect; tags describe the fitted curve by direction and shape.

Q: Which Potency does the source give for `CCN(CC)C(=O)CN1C(=O)NC2(CCC(C(C)(C)C)CC2)C1=O` (stereo not given) here?
A: inconclusive: 20 µM [inhibitor, single point]

Q: For `CCCNC(=O)Cc1csc2nc(C)c(-c3cc(C)n(-c4ccc(C)cc4)n3)c(=O)n12`, which Potency is on record?
A: inactive

Q: With `Cc1ccc(-c2cc(C(=O)NCCc3ccccc3)c3ccccc3n2)cc1C` as the compound, how does the Potency read?
A: inconclusive: 17.8 µM [inhibitor, single point]

Q: For `Cc1ccccc1NC(=O)Cn1c(=O)n(Cc2ccco2)c(=O)c2cccnc21`, which Potency is on record?
A: inconclusive: 11.2 µM [inhibitor, single point]

Q: With `O=C(Cc1ccc(F)cc1)N1CCc2nc(C3CC3)nc(-c3ccc(Cl)cc3)c2C1` as the compound, how does the Potency read?
A: inconclusive: 7.94 µM [inhibitor, partial curve, poor fit]

Q: Which Potency does the source give for `O=C(c1ccc2[nH]ccc2c1)N1C[C@@H](CO)[C@H](c2nc(C3CC3)no2)C1` here?
A: inactive

Q: With `O=C(c1ccc(CSc2nc3ccncc3n2Cc2ccccc2F)cc1)N1CCCCC1` as the compound, how does the Potency read?
A: inconclusive: 10 µM [inhibitor, single point]

Q: Which Potency does the source give for `Cc1cc(Nc2cccc(Cl)c2)nc2ccc(NC(=O)c3ccc(F)cc3Cl)cc12` here?
A: inactive

Q: Which Potency does the source give for `Fc1ccc(C2=NC(c3cccc(C(F)(F)F)c3)=Nc3ccccc3N2)cc1` here?
A: inconclusive: 12.6 µM [inhibitor, single point]

Q: With `Cc1nn(C(=O)CCCC(=O)N2CCC(Cc3nc(C4CCOCC4)no3)CC2)c2ccccc12` as the compound, how does the Potency read?
A: inconclusive: 1.26 µM [inhibitor, partial curve, poor fit]

Q: Which Potency does the source give for `COCCOCC(=O)N1CCC2(CC1)NCCc1c2[nH]c2ccc(OC)cc12` here?
A: inconclusive: 8.91 µM [inhibitor, partial curve, poor fit]

Q: For `Cc1noc(C)c1COc1ccc(C(=O)N[C@@H]2CN(C(=O)Nc3ccc(F)cc3)CCC[C@H]2O)cc1`, which Potency is on record?
A: inconclusive: 8.91 µM [inhibitor, partial curve, poor fit]

Q: For `CC(=O)Nc1ccc(-n2cc3c(c2-c2ccc(C)cc2)c(=O)n(C)c(=O)n3C)cc1`, which Potency is on record?
A: inconclusive: 20 µM [inhibitor, partial curve, poor fit]

Q: With `O=C(c1ccc(-c2ccco2)cc1)N1CCOC(c2ccccc2)C1` (stereo not given) as the compound, how does the Potency read?
A: inconclusive: 20 µM [inhibitor, partial curve, poor fit]

Q: For `CCCCN(CC)CCCn1cnc2c([nH]c3ccc(Cl)cc32)c1=O`, which Potency is on record?
A: inconclusive: 12.6 µM [inhibitor, single point]

Q: For `COCCN1Cc2[nH]nc(-c3cccc(C(F)(F)F)c3)c2CC1=O`, which Potency is on record?
A: inactive

Q: Which Potency does the source give for `CN(CC1CCN(CCc2ccc(Cl)cc2)CC1)C(=O)c1ccccc1C#N` here?
A: inconclusive: 0.562 µM [inhibitor, full curve, poor fit]

Q: Which Potency does the source give for `CCC(=O)Nc1ccccc1-c1nc2ccccc2n(C(CC)C(=O)Nc2cccc(C(C)=O)c2)c1=O` (stereo not given) here?
A: inconclusive: 17.8 µM [inhibitor, single point]

Q: With `CN(C)C(=O)c1ccc2c(c1)NC(C)(CCCCc1ccccc1)CO2` (stereo not given) as the compound, how does the Potency read?
A: inconclusive: 6.31 µM [inhibitor, partial curve, poor fit]

Q: With `O=C(C[C@@H]1C[C@H]2O[C@H](CNCc3ccccc3OC(F)(F)F)[C@@H](O)[C@H]2O1)N1CCOCC1` as the compound, how does the Potency read?
A: inconclusive: 17.8 µM [inhibitor, partial curve, poor fit]

Q: With `COc1ccc(NC(=O)Cn2ccn3nc4c(c3c2=O)CCCCC4)cc1` as the compound, how does the Potency read?
A: inactive

Q: Which Potency does the source give for `CCN(CC)C(=O)[C@H]1CCC[C@H]1NC(=O)c1ccncc1` here?
A: inactive

Q: Which Potency does the source give for `CC(C)(C)C1CCc2nc(NC(=O)COc3ccc(F)cc3)sc2C1` (stereo not given) here?
A: inconclusive: 10 µM [inhibitor, partial curve, poor fit]

Q: For `FC(F)(F)CN1C2CCC1CN(c1nccc(Cl)n1)C2`, which Potency is on record?
A: inconclusive: 11.2 µM [inhibitor, single point]

Q: For `COc1ccc(-c2noc([C@@H]3CCCN3C(=O)CCCc3ccccc3)n2)cc1`, which Potency is on record?
A: inconclusive: 0.631 µM [inhibitor, full curve]

Q: Which Potency does the source give for `Cc1ccc(C)c(S(=O)(=O)c2nnn3c2nc(N2CCCC2)c2sccc23)c1` here?
A: inconclusive: 17.8 µM [inhibitor, single point]

Q: Which Potency does the source give for `Cc1ccccc1CC(=O)N1CCC2(CC1)NC(=O)N(c1ccccc1)N2` here?
A: inconclusive: 17.8 µM [inhibitor, single point]

Q: Which Potency does the source give for `O=C1Nc2ccccc2CNC12CCN(CC1CCCC1)CC2` here?
A: inactive

Q: For `CCN1CCC2(Cc3ccccc3CN(C(=O)c3c(C)noc3C)C2)C1` (stereo not given), which Potency is on record?
A: inconclusive: 5.01 µM [inhibitor, partial curve, poor fit]

Q: Which Potency does the source give for `COc1cc(OC)cc(-c2nnc(SCC(=O)N3CCC(C)CC3)o2)c1` here?
A: inconclusive: 10 µM [inhibitor, single point]

Q: With `CC(=O)c1ccc(NC(=O)Cn2c(-n3nc(C)cc3C)nc(C)cc2=O)cc1` as the compound, how does the Potency read?
A: inactive

Q: Which Potency does the source give for `O=C(N1CCC(N2CC(OCC3CC3)C23CCOCC3)CC1)C1(c2ccccc2)CC1` (stereo not given) here?
A: inconclusive: 10 µM [inhibitor, single point]

Q: For `CC(=O)c1ccc(NC(=O)c2sc3nc4c(cc3c2N)N2CCC4CC2)cc1`, which Potency is on record?
A: inactive

Q: For `Cc1cccn2c(=O)c3cc(C(=O)NCCc4ccc(S(N)(=O)=O)cc4)n(C)c3nc12`, which Potency is on record?
A: inconclusive: 0.0089 µM [inhibitor, full curve, poor fit]

Q: Which Potency does the source give for `COc1ccc(OC)c(C2C(C(N)=O)=C(C)Nc3nc(-c4cccc(Cl)c4)nn32)c1` (stereo not given) here?
A: inconclusive: 10 µM [inhibitor, single point]

Q: Which Potency does the source give for `CC(=O)NC1(C)CCN(Cc2cccc(-c3ccc4c(c3)OCCN4C)c2)C1` (stereo not given) here?
A: inconclusive: 11.2 µM [inhibitor, partial curve]

Q: Which Potency does the source give for `CC(C)(C)c1ccc(OCC(=O)N(Cc2ccco2)Cc2ccccc2F)cc1` here?
A: inactive

Q: For `COC(=O)c1ccccc1S(=O)(=O)N1CCC(c2cc(-c3cccc(C)c3)n[nH]2)CC1`, which Potency is on record?
A: inactive

Q: Which Potency does the source give for `Cc1occc1C(=O)NC1CCc2nn(C)c(=O)n2CC1` (stereo not given) here?
A: inactive

Q: For `Cc1ccc(NC(=O)C(Cc2ccccc2)NS(=O)(=O)c2ccc3c(c2)c(=O)n(C)c(=O)n3C)cc1` (stereo not given), which Potency is on record?
A: inconclusive: 17.8 µM [inhibitor, single point]
